# The whole screen tested about 310,000 compounds, of which about 14,000 (4.5%) showed an effect of 50% or more. The effect is printed as a negative number. Some of the results follow.
# Target: human ether-à-go-go-related gene (hERG) potassium channel (human, UniProt Q12809)
# Test: primary screen, population patch clamp on CHO cells stably expressing hERG
# 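Further: peak tail current of the secondary pulse compared with the same well before compound.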
# Sequence of human ether-à-go-go-related gene (hERG) potassium channel (Q12809 whole entry, looked up): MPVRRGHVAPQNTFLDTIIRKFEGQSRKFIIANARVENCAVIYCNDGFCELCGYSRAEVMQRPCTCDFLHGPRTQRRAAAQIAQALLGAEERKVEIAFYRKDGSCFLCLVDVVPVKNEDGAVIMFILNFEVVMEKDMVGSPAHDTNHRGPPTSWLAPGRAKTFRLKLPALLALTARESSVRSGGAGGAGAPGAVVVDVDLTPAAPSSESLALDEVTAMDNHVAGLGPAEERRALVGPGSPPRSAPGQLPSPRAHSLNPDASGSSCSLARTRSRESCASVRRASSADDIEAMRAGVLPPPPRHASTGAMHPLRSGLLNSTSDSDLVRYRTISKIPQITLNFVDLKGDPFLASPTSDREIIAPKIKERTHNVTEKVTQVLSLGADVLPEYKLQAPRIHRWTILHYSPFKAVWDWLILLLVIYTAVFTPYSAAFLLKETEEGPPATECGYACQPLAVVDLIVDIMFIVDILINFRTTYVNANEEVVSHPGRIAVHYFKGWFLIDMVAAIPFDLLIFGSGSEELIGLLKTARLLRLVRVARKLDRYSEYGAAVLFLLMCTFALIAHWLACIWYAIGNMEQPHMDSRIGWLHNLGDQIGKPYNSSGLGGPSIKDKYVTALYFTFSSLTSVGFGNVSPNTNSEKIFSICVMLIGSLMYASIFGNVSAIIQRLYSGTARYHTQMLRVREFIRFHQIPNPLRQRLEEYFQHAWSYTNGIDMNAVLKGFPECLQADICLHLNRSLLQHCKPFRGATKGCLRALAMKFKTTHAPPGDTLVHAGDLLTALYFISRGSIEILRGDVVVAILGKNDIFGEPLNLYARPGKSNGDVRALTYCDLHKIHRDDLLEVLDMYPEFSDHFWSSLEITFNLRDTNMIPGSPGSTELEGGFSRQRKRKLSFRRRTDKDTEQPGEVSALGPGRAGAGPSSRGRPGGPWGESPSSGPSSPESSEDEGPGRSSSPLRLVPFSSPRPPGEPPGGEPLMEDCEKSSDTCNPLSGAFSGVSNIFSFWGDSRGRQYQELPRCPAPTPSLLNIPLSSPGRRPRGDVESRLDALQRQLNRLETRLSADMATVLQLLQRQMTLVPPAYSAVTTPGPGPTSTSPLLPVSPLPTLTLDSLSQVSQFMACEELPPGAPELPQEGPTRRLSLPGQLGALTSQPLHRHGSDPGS
row,SMILES,"hERG current change (%, negative = inhibition) at 10uM [%]"
1,c1ccc2c(c1)OCC(CNc1ncnc3sccc13)O2 (stereo not drawn),-20.9
2,N#CC1=C(N)S[C@@H](C(=O)c2ccc(F)cc2)[C@@H]1c1cccs1,-14.8
3,CCn1cc(C(=O)NCc2ccccc2Cl)cn1,11.7
4,O=C(NCc1ccccn1)C(=O)NCC1OCCN1S(=O)(=O)c1ccc(Br)cc1 (stereo not drawn),-11.5
5,Cc1ccc(NNC(=O)c2cccs2)cc1Cl,9.61
6,COc1ccccc1Oc1coc2c(CN(C)C)c(O)ccc2c1=O,-11
7,O=C(NCCC1=CCCCC1)c1cc(S(=O)(=O)N2CCCCC2)ccc1Cl,1.24
8,O=C(N/N=C/c1ccco1)c1ccccc1OCc1ccccc1Cl,-82.8
9,Cc1ccc(NC(=O)NC(=O)c2cnccc2C(F)(F)F)c(C)c1,-5.48
10,CCSc1nnc(NC(=O)[C@@H](NC(=O)c2cc(OC)cc(OC)c2)C(C)C)s1,-10.1
11,CCOC(=O)C1CCCN(c2c(N3CCN(c4cccc(Cl)c4)CC3)c(=O)c2=O)C1 (stereo not drawn),-41.7
12,NC(=O)c1cn(C2OC(CO)C(O)C2O)c2ncnc(N)c12.O (stereo not drawn),2.67
13,O=c1[nH]c(SCc2cccc(F)c2)nc2c1CCCC2,-1.59
14,Cn1c(=O)n(CC(=O)Nc2cccnc2)c2ccccc21,-0.477
15,CCCn1c(SCC(=O)Nc2ccc(Cl)cc2)n[nH]c1=O,5.02
16,COc1cc(CN2CCNC(=O)C2CC(=O)N2CCCCO2)cc(OC)c1 (stereo not drawn),5
17,CN(C)CCCN(CCCN(C)C)C(=S)Nc1ccc(S(=O)(=O)N2CCOCC2)cc1,5.9
18,Cc1ccccc1Cn1ccc(NC(=O)c2onc(C)c2Cl)n1,19.1
19,COc1cc(C(=O)NCCN2C(=O)S/C(=C\c3cccs3)C2=O)cc(OC)c1OC,-18.4
20,CCCCn1c(NC(C)CC)nc2c1c(=O)[nH]c(=O)n2C (stereo not drawn),9.92
21,O=c1oc2cc(OCc3ccc(F)cc3F)ccc2cc1-c1ccccn1,13.2
22,CC(C)(C)NC(=O)COC(=O)c1ccc(F)cc1Cl,14.6

row,SMILES,"hERG current change (%, negative = inhibition) at 10uM [%]"
1,C/C(=C\c1ccccc1)CN1CCC(C(=O)N2CCC(C)CC2)CC1.O=C(O)C(=O)O,-63
2,CC(C)CN(C(=O)COC(=O)c1ccc(Cl)c(N)c1)c1c(N)n(Cc2ccccc2)c(=O)[nH]c1=O,-29.2
3,CCOC(=O)C1=C(C)N(c2ccc(C)c(C)c2)C(=O)/C1=C\c1ccco1,-0.86
4,Cc1ccc(CSCCNS(=O)(=O)c2ccc([N+](=O)[O-])cc2)cc1,-4.18
5,CC(=O)C1=C(C)NC(SCC(=O)Nc2nc3ccccc3s2)=C(C#N)C1c1ccc(Cl)cc1 (stereo not drawn),3.73
6,COc1ccccc1-c1cc(C(=O)N/N=C/c2ccoc2)c2ccccc2n1,-6.5
7,O=C(C1=C[C@H](c2csc3ccccc23)C[C@H](OCc2ccc(CO)cc2)O1)N1CCOCC1,-59.2
8,COc1ccc(Cc2nc3ccc(C(=O)NCCCSC)cc3o2)cc1OC,0.503
9,Cc1cc(C)n(C(=O)c2ccc(S(=O)(=O)N3CCOCC3)cc2)n1,0.562
10,Cc1cc(N2CCCCC2)nc2ccc(NC(=O)CCC(=O)NCCC(C)C)cc12,-3.35
11,O=C(O)c1ccc(CN(c2ccccc2)S(=O)(=O)c2ccccc2)cc1,31
12,COc1cc(C(=O)OCCCN=C2NS(=O)(=O)c3ccccc32)cc(OC)c1OC,21.8
13,CCOc1ccc(C(=O)c2ccc(OCC)c(N)c2)cc1N,0.972
14,CC(C)c1ccc(NC2CCCN(C(=O)CCN3CCCCO3)C2)cc1 (stereo not drawn),1.87
15,Cn1c(/C(C#N)=C(\O)c2cccc(F)c2)nc2ccccc21,14.8
16,CC1(C)Cc2c(C#N)c(N3CCOCC3)nc(-c3ccccc3)c2CO1,-12.1
17,CCC(C)Oc1nc2ccccc2nc1NS(=O)(=O)c1ccccc1 (stereo not drawn),6.45
18,COc1ccc(S(=O)(=O)N2CCN=C2SCc2cccnc2)cc1,-33
19,COCCN1C(=O)/C(=C/c2ccc(N3CCCC3)cc2)SC1=S,11.1
20,CN(C(=O)COC(=O)c1cccc(S(=O)(=O)N2CCCCCC2)c1)C1CCS(=O)(=O)C1 (stereo not drawn),-7.52
21,COCCNc1nnc(SCC(=O)NC2CCCCC2)s1,5.54
22,CC(=O)c1ccc(NC(=O)CSc2nc(=O)n3cccc(C)c3n2)cc1,-17.3

row,SMILES,"hERG current change (%, negative = inhibition) at 10uM [%]"
1,COc1ccc(N(CC(=O)NC2CCCCC2)C(=O)c2ccc(C)s2)cc1OC,9.7
2,COc1ccc(NC2C=CS(=O)(=O)C2)cc1 (stereo not drawn),0.937
3,NNC(=O)c1cc(C23CC4CC(CC(C4)C2)C3)nc2ccccc12,5.8
4,COc1ccccc1NC(=O)/C(C#N)=C/c1cccnc1,-7.89
5,O=C1NC(=S)NC(=O)C12C(c1ccccc1)NC(=S)NC2c1ccccc1 (stereo not drawn),9.71
6,CC(C)c1ccc(/C=C/C(=O)NNC(=O)c2cccnc2)cc1,-25.6
7,CCn1cc(C(=O)OCc2cccc(Br)c2)c(=O)c2ccc(C)nc21,-33.5
8,COC(=O)[C@@]1(Cc2ccccc2)[C@H]2c3cc(C(=O)N4CCCC4)n(Cc4ccsc4Br)c3C[C@H]2CN1C(=O)c1ccccc1,9.61
9,CCCCCCOc1ccc(/C=C/C(=O)N2CCOCC2)cc1OC,-16.2
10,CCOC(=O)c1cnc2c(C)c(C)ccc2c1Nc1ccc(S(=O)(=O)Nc2ncccn2)cc1,-15.3
11,COc1ccc(/C=C/C(=O)N2CCOCC2)cc1OC,16.9
12,O=C(NC(=S)NCc1ccc2c(c1)OCO2)c1ccccc1,-10.2
13,O=[N+]([O-])c1ccc(N/N=C2/CCCCC2c2ccccn2)c([N+](=O)[O-])c1 (stereo not drawn),-56.3
14,CCOc1ccc(CCNC(=O)c2cc3c(s2)CS(=O)(=O)C3)cc1OCC,11.6
15,Cc1cccc(CC2CC(=O)N(c3ccc(C)cc3Br)C2=O)c1 (stereo not drawn),2.33
16,CN(C)c1ccc(CN(CC2CCCO2)C(=O)c2cccs2)cc1 (stereo not drawn),-2.59
17,CCOC(=O)c1c(C)n(Cc2ccco2)c2ccc(O)cc12,20.1
18,Cc1cc(OCC(=O)OCC(=O)Nc2cc(C(F)(F)F)ccc2N2CCOCC2)ccc1Cl,11.1
19,CSCCC(=O)N1C(C)CCCC1C(=O)O (stereo not drawn),12.7
20,Cl.OCCN(CC#CC(O)(c1ccccc1)C1CCCCC1)CCO (stereo not drawn),6
21,Cc1ccc2nc(SCC(=O)NC3CCCC3)nc(=O)n2c1,-25.1
22,COCC1CCCCN1C(=O)c1cc(COc2ccc3ncccc3c2)on1 (stereo not drawn),-47.2

row,SMILES,"hERG current change (%, negative = inhibition) at 10uM [%]"
1,C[C@@]1([C@@H](NP(=O)(c2ccccc2)c2ccccc2)c2ccccc2)C[C@H]1CCO,11.9
2,COc1ccc(NC(=O)CN(C)C(=O)c2ccccc2OCC(=O)Nc2cccc(C(F)(F)F)c2)cc1,-47.4
3,O=C(NNc1ccc(-c2csnn2)cc1)c1ccccc1C(F)(F)F,-13.9
4,O=C(CNCc1cccc2ccccc12)Nc1ccccc1[N+](=O)[O-],13.7
5,COc1ccc(CNC(=O)c2n[nH]c3ccccc23)cc1OC,11.6
6,CCOC(=O)C1=C(C)NC(C)=C(C(=O)OCC)C1c1cc(N)ccc1OC(F)F,-3.26
7,COc1ccc(NC(=O)CCCC(=O)OCC(=O)c2cccc(OC)c2)cc1,18.5
8,O=C(O)CC(=O)Nc1ccccc1,21.4
9,O=C(CSc1nc2ccccc2o1)N/N=C/c1ccccc1,2.74
10,CCN(CC)CCCOC(=O)C(OC(C)C)(c1ccccc1)c1ccccc1.Cl,-31.9
11,Oc1cc(O)cc(-c2cc3ccc(O)cc3o2)c1,26.1
12,COc1ccc(OC)c(-c2csc(NC(=O)c3ccc4c(c3)OCO4)n2)c1,-2.31
13,CCN(CC)CCn1c(NCc2nc3ccccc3n2Cc2ccccc2)nc2ccccc21,-2.44
14,Cc1nn(CCc2n[nH]c(=S)n2C2CCCCC2)c(C)c1Br,0.0958
15,COc1ccc2nc(Nc3ccccc3OC)sc2c1,-4.64
16,CC(C)CC(C(=O)O)N1C(=O)C2C3c4ccccc4C(c4ccccc43)[C@@H]2C1=O (stereo partly drawn),16.7
17,CNC(=O)NC(=O)Cn1cnc2sc(-c3ccccc3)cc2c1=O,14.2
18,O=c1c2cc(F)ccc2[nH]c(=S)n1Cc1ccc(F)cc1,12.6
19,CC(=O)Nc1ccc(S(=O)(=O)NNc2cccc(C)c2)cc1,13
20,O=C(CC1C=Cc2ccccc2N1C(=O)c1ccccc1)c1ccccc1 (stereo not drawn),-11.5
21,COc1ccccc1N(Cc1ccccc1)S(=O)(=O)c1cccc(C(=O)Nc2ccc(C)cn2)c1,5.05
